# Structures can show the parent of a compound that is named as a salt. The list shows a part of the results.
# Tested on: Schistosoma mansoni schistosomula
# Test: phenotypic hit in primary schistosomula screen (any phenotype vs DMSO control) (binary (1 = hit, 0 = no phenotype)); higher = active (phenotype induced)
# Conditions: 1 µM; time (d): 7
row,SMILES,phenotypic hit
1,CC(=O)N(O)CCCCCNC(=O)CCC(=O)N(O)CCCCCNC(=O)CCC(=O)N(O)CCCCCN [deferoxamine mesylate],inactive: 0
2,C=CC(C)(O)CCC1C(=C)CC(O)C2C(C)(C)CCCC12C (stereo not drawn) [larixol],inactive: 0
3,"CC(=O)OC1CC[C@@]2(C)C(CC[C@H]3[C@@H]4CC=C(C(C)=O)[C@@]4(C)C(=O)C[C@@H]32)C1 (stereo partly drawn) [3-acetoxypregn-16-en-12,20-dione]",inactive: 0
4,C[C@@H]1[C@H](O)[C@@H](C)/C=C/C=C/C=C/C=C/C=C/C=C/C=C/[C@H](O[C@@H]2O[C@H](C)[C@@H](O)[C@H](N)[C@@H]2O)C[C@@H]2O[C@](O)(C[C@@H](O)C[C@@H](O)[C@H](O)CC[C@@H](O)C[C@@H](O)CC(=O)O[C@H]1C)C[C@H](O)[C@H]2C(=O)O [amphotericin b],active: 1
5,CO[C@@]1(NC(=O)CSCC#N)C(=O)N2C(C(=O)O)=C(CSc3nnnn3C)CS[C@@H]21 [cefmetazole sodium],inactive: 0
6,CCOC(=O)C(C)(C)Oc1ccc(Cl)cc1 [Clofibrate],inactive: 0
7,CN1CCc2cccc3c2[C@H]1Cc1ccc(O)c(O)c1-3 [apomorphine hydrochloride],inactive: 0
8,C[C@]12CCC3c4ccc(OC(=O)CCC(=O)O)cc4CCC3C1CCC2=O (stereo partly drawn) [estrone hemisuccinate],inactive: 0
9,CCC(Cc1c(I)cc(I)c(N)c1I)C(=O)O (stereo not drawn) [iopanic acid],inactive: 0
10,C[C@]12CC[C@@H]3c4ccc(O)cc4CC[C@H]3[C@@H]1CC[C@@H]2OC(=O)CCC1CCCC1 [estradiol cypionate],inactive: 0
11,O=C1C=C2CC3(O)COc4c(ccc(O)c4O)C3=C2C=C1O (stereo not drawn) [hematein],inactive: 0
12,CN1CCN(C2=Nc3cc(Cl)ccc3Nc3ccccc32)CC1 [Clozapine],inactive: 0
13,CC1=CC(=O)c2c(O)c(O)c(O)c3c(O)c4c(c1c23)O[C@H](C)C4(C)C [atrovenetin],inactive: 0
14,C=C1C2CC[C@@]3(C)[C@H](c4ccoc4)OC(=O)C[C@]13O[C@H]1CC(O)C(C)(C)C(CC(=O)OC)[C@@]21C (stereo partly drawn) [3alpha-hydroxy-3-deoxyangolensic acid methyl ester],inactive: 0
15,COc1c(O)cc2c(-c3ccccc3)cc(=O)oc2c1OC [kuhlmannin],inactive: 0
16,N=C1C=CC(=C(c2ccc(N)cc2)c2ccc(N)cc2)C=C1 [pararosaniline pamoate],active: 1
17,Cc1cc(=O)n(-c2ccccc2)n1C [antipyrine],inactive: 0
18,Clc1ccc(COC(Cn2ccnc2)c2ccc(Cl)cc2Cl)c(Cl)c1 (stereo not drawn) [miconazole nitrate],active: 1
19,NC12CC3CC(CC(C3)C1)C2 [Amantadine hydrochloride],inactive: 0
20,COc1cc(O)c2c(=O)c(O)c(-c3ccc(O)c(O)c3)oc2c1 [rhamnetin],inactive: 0
21,CC(=O)NO [acetohydroxamic acid],inactive: 0
22,COc1ccc(-c2c(O)c3c(OC)c4c(cc3oc2=O)OC(C)(C)C=C4)cc1 [robustic acid],inactive: 0
23,CC(C)(Oc1ccc(Cl)cc1)C(=O)O [clofibric acid],inactive: 0

row,SMILES,phenotypic hit
1,CN1CCCN=C1COC(=O)C(O)(c1ccccc1)C1CCCCC1 (stereo not drawn) [oxyphencyclimine hydrochloride],inactive: 0
2,CCCCCCCCCCC[C@@H](C[C@@H]1OC(=O)[C@H]1CCCCCC)OC(=O)[C@H](CC(C)C)NC=O [orlistat],inactive: 0
3,CC(=O)Oc1c(-c2ccccc2)oc2c(CC=C(C)C)c3c(c(OC(C)=O)c2c1=O)C=CC(C)(C)O3 [sericetin diacetate],inactive: 0
4,O=C1O[C@H](CO)[C@@H](O)[C@H](O)[C@H]1O [gluconolactone],inactive: 0
5,CC(=O)N[C@@H](CC(=O)O)C(=O)O [n-acetylaspartic acid],inactive: 0
6,COc1cc(C/C=C/c2ccccc2)c(OC)cc1O [violastyrene],inactive: 0
7,CO[C@H]1C[C@H](O[C@H]2[C@H](C)[C@@H](O[C@@H]3O[C@H](C)C[C@H](N(C)C)[C@H]3OC(C)=O)[C@@H](C)C[C@@]3(CO3)C(=O)[C@H](C)[C@@H](OC(C)=O)[C@@H](C)[C@@H](C)OC(=O)[C@@H]2C)O[C@@H](C)[C@@H]1OC(C)=O [troleandomycin],inactive: 0
8,CC(C)(S)[C@@H](N)C(=O)O [penicillamine],inactive: 0
9,CC(=O)Oc1c(Cl)c(C)c2c(c1Cl)OC(=O)c1c(C)c(Cl)c(OC(C)=O)c(Cl)c1O2 [nordiploicin diacetate],inactive: 0
10,CC(=O)NCCc1c[nH]c2ccc(O)cc12 [acetylserotonin],inactive: 0
11,CN1CCC(=C2c3ccccc3CC(=O)c3sccc32)CC1 [ketotifen fumarate],inactive: 0
12,CCCN(CCC)C(=O)C(CCC(=O)O)NC(=O)c1ccccc1 (stereo not drawn) [Proglumide],inactive: 0
13,CCCCC[C@H](CC(=O)O)C(=O)O [nonic acid],inactive: 0
14,CC[C@H](CC[C@@H](C)[C@H]1CC[C@H]2[C@@H]3CC=C4C[C@@H](O)CC[C@]4(C)[C@H]3CC[C@]12C)C(C)C [beta-sitosterol],inactive: 0
15,CC(C)(Sc1cc(C(C)(C)C)c(O)c(C(C)(C)C)c1)Sc1cc(C(C)(C)C)c(O)c(C(C)(C)C)c1 [probucol],inactive: 0
16,COc1cc(-c2coc3cc(OC)c(OC)c(OC)c3c2=O)cc(OC)c1OC [irigenin trimethyl ether],inactive: 0
17,Cn1ccnc1S [methimazole],inactive: 0
18,Oc1ccc(Cl)c2cccnc12 [cloxyquin],inactive: 0
19,Nc1c(Br)cc(Br)cc1CN[C@H]1CC[C@H](O)CC1 [ambroxol hydrochloride],inactive: 0
20,C[C@]12CCC3c4ccc(OC(=O)c5ccccc5)cc4CCC3C1CCC2=O (stereo partly drawn) [estrone benzoate],inactive: 0
21,C=CCc1ccc(OC(=O)c2ccccc2)c(OC)c1 [eugenyl benzoate],inactive: 0
22,CCN(CC)CCOC(=O)C(c1ccccc1)C1CCCCC1 (stereo not drawn) [drofenine hydrochloride],inactive: 0
23,COc1cc(Cc2cnc(N)nc2N)cc(OC)c1OC [Trimethoprim],inactive: 0

row,SMILES,phenotypic hit
1,CO[C@@]1(NC(=O)Cc2cccs2)C(=O)N2C(C(=O)O)=C(COC(N)=O)CS[C@@H]21 [cefoxitin sodium],inactive: 0
2,CC(=O)O[C@H]1CC[C@]2(C)C3C(=O)[C@@H](OC(C)=O)[C@@]4(C)C(C[C@@H]5O[C@]6(CCC(C)CO6)[C@@H](C)[C@@H]54)C3CC[C@H]2C1 (stereo partly drawn) [11-ketorockogenin acetate],inactive: 0
3,"COc1cccc2c1CCC1=CC(=O)CC[C@@]12C [14-methoxy-4,4-bisnor-4,8,11,13-podocarpatetraen-3-one]",inactive: 0
4,CCCCC(CC)CN1CN(CC(CC)CCCC)CC(C)(N)C1 (stereo not drawn) [hexetidine],active: 1
5,Cc1cccc(C)c1NC(=O)C1CCCCN1C (stereo not drawn) [mepivacaine hydrochloride],inactive: 0
6,COc1ccc(C2C(=O)c3ccccc3C2=O)cc1 [anisindione],inactive: 0
7,CC(=O)Oc1ccc2c(c1)CC[C@@H]1[C@@H]2CC[C@]2(C)[C@@H](OC(C)=O)CC[C@@H]12 [estradiol diacetate],active: 1
8,CN1C(C(=O)Nc2ccccn2)=C(O)c2sccc2S1(=O)=O [tenoxicam],inactive: 0
9,N=C(N)N [guanidine carbonate],inactive: 0
10,C[C@]12CC[C@H]3C(=CCc4cc(O)ccc43)[C@@H]1CCC2=O [equilin],inactive: 0
11,C=C[C@H]1CN2CC[C@H]1C[C@@H]2[C@@H](O)c1ccnc2ccc(OC)cc12 [quinidine gluconate],inactive: 0
12,Cc1c(C(N)=O)cc([N+](=O)[O-])cc1[N+](=O)[O-] [dinitolmide],inactive: 0
13,"COc1ccc2c(c1OC)OC[C@@H](c1ccc(OC)c(OC)c1OC)C2 [duartin, dimethyl ether]",inactive: 0
14,CS(=O)(=O)c1ccc(C2=C(c3ccccc3)C(=O)OC2)cc1 [rofecoxib],inactive: 0
15,CCC/C=C1\OC(=O)C2=C1CCC=C2 [ligustilide],inactive: 0
16,Cn1c(=O)c2[nH]cnc2n(C)c1=O [Aminophylline],inactive: 0
17,NC(N)=NCCC[C@H](N[C@H](CCC(=O)O)C(=O)O)C(=O)O [nopaline],inactive: 0
18,CN(C)CCC=C1c2ccccc2CCc2ccccc21 [Amitriptyline hydrochloride],active: 1
19,CCC(=O)OC1[C@@H]2CC3=C4CC(=O)O[C@@H](c5ccoc5)[C@]4(C)CCC3[C@@](C)(C2=O)[C@@H](CC(=O)OC)C1(C)C (stereo partly drawn) [khayasin c],inactive: 0
20,O=C(Nc1ccccc1)c1ccccc1O [salicylanilide],inactive: 0
21,COC(=O)C[C@H]1C(C)(C)C(=O)[C@@H]2CC3=C(CC[C@]4(C)C3=CC(=O)O[C@H]4c3ccoc3)[C@@]1(C)C2=O [carapin-8 (9)-ene],inactive: 0
22,CN[C@H](CC(C)C)C(=O)N[C@H]1C(=O)N[C@@H](CC(N)=O)C(=O)N[C@H]2C(=O)N[C@H]3C(=O)N[C@H](C(=O)N[C@H](C(=O)O)c4cc(O)cc(O)c4-c4cc3ccc4O)[C@H](O)c3ccc(c(Cl)c3)Oc3cc2cc(c3O[C@@H]2O[C@H](CO)[C@@H](O)[C@H](O)[C@H]2O[C@H]2C[C@](C)(N)[C@H](O)[C@H](C)O2)Oc2ccc(cc2Cl)[C@H]1O [vancomycin hydrochloride],inactive: 0

# — the supplement of paper PMC2702839
